The text below walks through data of patent publication US20230220053A1 (published 2023).

For test [1], the target named is S1 protein of SARS-CoV-2 (recombinant, construct not stated) (SARS-CoV-2). Kind of test: ELISA, S1 coated, scFv titrated, anti-Flag HRP.
In test [2] the target is T1, RBD of SARS-CoV-2 spike protein S1 (recombinant, construct not stated) (SARS-CoV-2).
T1 construct: also called SARS-COV-2, RBD; RBD-AF647
Kind of test: ELISA, RBD coated, scFv titrated, anti-Flag HRP. Background: In an ELISA, binding on a coated surface is turned into a signal by an enzyme label.

In test [3] the target is S1-Fc (SARS-CoV-2 S1 protein, Fc fusion) (SARS-CoV-2). Kind of test: SPR (Biacore T200), S1 captured on anti-human Fc chip, scFv injected. For orientation: In SPR one partner is held on a chip, and binding of the other changes the refractive index at the surface.

B1: 2020EP54-B12 scFv (scFv)
scFv: [about 100 residues omitted]VTRVGFDYWGQGTLVTVSSGGGGSGGGGSGGGGSSYELTQPPSVSVAPGKTARITCGGNNIGSKSVHWYQQKPGQAPVLVIYYDSDRPSGIPERFSGSNSGNTATLTISRVEAEDEADYYCQVWDSSSDVVFGGGTKLTVL
notes: also called 2020EP054-B12
As a reminder, the EC50 is the concentration giving half of the maximal effect. The term Kd denotes the free concentration of one partner at which half of the binding sites on the other are occupied at equilibrium, for simple one-to-one binding. A low value points to a tighter complex. Broadly, the koff is the rate constant with which the complex falls apart. In general, kon refers to the rate constant with which the complex forms. A lower kon goes with slower complex formation. For B1, in test [1], the EC50 is 2.68 nM. Further, in test [2], the EC50 was 0.853 nM. Further, in test [3], the Kd amounted to 6.54 nM, the koff was 0.00383 s⁻¹ and the association rate constant (kon) turned out to be 586000 M⁻¹ s⁻¹.
